Results from the RNAGym collection of RNA variant scans (doi:10.7554/elife.90254).
The source gives no read counts; variants with many changes may rest on few reads.

B1: LINE1-mini (parent)
chain: GGCAGAGCUCAACACAGCGUGGCAAAGUGGCUGUGGCUAGACUGCC

Variants of: B1
Test: self-cleavage, relative activity (ratio to wild type); higher = more cleavage; in vitro, sequencing; the parent is a self-cleaving ribozyme

Q: Which self-cleavage does the source give for A6U C10A G27A G36A here?
A: Its self-cleavage is 0.01.

Q: Which self-cleavage does the source give for A6U U20A G27A G35C here?
A: Its self-cleavage is 0.09.

Q: For A6U C8A C10A A11U U32C G44A, which self-cleavage is on record?
A: The self-cleavage was 0.01.

Q: Which self-cleavage does the source give for A6U C10A U20A U32A U34A G36U here?
A: The self-cleavage was 0.01.

Q: With A6U C18A G21C G44U as the variant, how does the self-cleavage read?
A: Its self-cleavage is 0.03.

Q: With A6U G7U C37A as the variant, how does the self-cleavage read?
A: Its self-cleavage is 0.02.

Q: For A6U C10A C23A G30U, which self-cleavage is on record?
A: Its self-cleavage is 0.02.

Q: For A6U G17A A25U U28C G30A G33U, which self-cleavage is on record?
A: Its self-cleavage is 0.1.

Q: With A6U C8U C10A C13A G19U as the variant, how does the self-cleavage read?
A: The self-cleavage was 0.01.

Q: For A6U G17A G35A, which self-cleavage is on record?
A: The self-cleavage was 0.02.

Q: For A6U C37U A39C, which self-cleavage is on record?
A: Its self-cleavage is 0.02.

Q: With A6U U9A G35U as the variant, how does the self-cleavage read?
A: Its self-cleavage is 0.13.

Q: With A6U C13A U34A C45U as the variant, how does the self-cleavage read?
A: Its self-cleavage is 0.03.

Q: With A6U U28A C45G as the variant, how does the self-cleavage read?
A: Its self-cleavage is 0.29.

Q: For A6U G21U G33A, which self-cleavage is on record?
A: The self-cleavage was 0.12.

Q: For A6U C13A G30C, which self-cleavage is on record?
A: Its self-cleavage is 0.17.

Q: For A6U G19A A24G C31U, which self-cleavage is on record?
A: Its self-cleavage is 0.18.

Q: Which self-cleavage does the source give for A6U G7C G17C U32G here?
A: The self-cleavage was 0.19.

Q: Which self-cleavage does the source give for A6U C13A C23A G33A U34A here?
A: The self-cleavage was 0.06.

Q: Which self-cleavage does the source give for A6U G33U U34C A41C C46A here?
A: The self-cleavage was 0.03.

Q: With A6U U9C U38C C45U as the variant, how does the self-cleavage read?
A: The self-cleavage was 0.04.

Q: With A6U C18A U20C as the variant, how does the self-cleavage read?
A: Its self-cleavage is 0.34.

Q: With G7A A12U G22A G36U C42A U43A as the variant, how does the self-cleavage read?
A: The self-cleavage was 0.05.

Q: With A6U C15U G22A C37A as the variant, how does the self-cleavage read?
A: The self-cleavage was 0.12.

Q: With A6U U20C C45G as the variant, how does the self-cleavage read?
A: The self-cleavage was 0.21.

Q: With A6U U32C A39U as the variant, how does the self-cleavage read?
A: The self-cleavage was 0.11.

Q: With A6U C10U U20A A25U C31G U43C as the variant, how does the self-cleavage read?
A: The self-cleavage was 0.07.

Q: With A6U C10A G22C C42A as the variant, how does the self-cleavage read?
A: Its self-cleavage is 0.03.

Q: For A6U G44U C45G, which self-cleavage is on record?
A: Its self-cleavage is 0.07.

Q: With A6U G22C C23A A26C as the variant, how does the self-cleavage read?
A: Its self-cleavage is 1.35.

Q: Which self-cleavage does the source give for A6U C8G C31A C45A here?
A: Its self-cleavage is 0.02.

Q: For A6U C10A C15U, which self-cleavage is on record?
A: The self-cleavage was 0.06.

Q: For A6U C15A G30A G36U, which self-cleavage is on record?
A: Its self-cleavage is 0.04.

Q: With A6U C13A A14U G22C C31A as the variant, how does the self-cleavage read?
A: Its self-cleavage is 0.08.

Q: For A6U G7U A39G, which self-cleavage is on record?
A: Its self-cleavage is 0.02.

Q: With A6U G22U G27U as the variant, how does the self-cleavage read?
A: The self-cleavage was 0.14.

Q: With G7A A12C C31G C45A as the variant, how does the self-cleavage read?
A: The self-cleavage was 0.01.

Q: With A6U G7C A25G A39U as the variant, how does the self-cleavage read?
A: Its self-cleavage is 0.2.

Q: With G7A A12G C42A C45A C46A as the variant, how does the self-cleavage read?
A: Its self-cleavage is 0.59.

Q: Which self-cleavage does the source give for A6U C13A G30U G35U here?
A: The self-cleavage was 0.39.

Q: For A6U C8G A11G C45A, which self-cleavage is on record?
A: Its self-cleavage is 0.04.

Q: With A6U C13A A25U G40U as the variant, how does the self-cleavage read?
A: Its self-cleavage is 0.11.

Q: For A6U C13A G19U U28C G36U, which self-cleavage is on record?
A: The self-cleavage was 0.06.

Q: For A6U G7U U9G, which self-cleavage is on record?
A: The self-cleavage was 0.06.

Q: With A6U G35A G36C U38C as the variant, how does the self-cleavage read?
A: Its self-cleavage is 0.03.

Q: Which self-cleavage does the source give for A6U G7U G19U here?
A: The self-cleavage was 0.03.

Q: With A6U G29U G35U as the variant, how does the self-cleavage read?
A: Its self-cleavage is 0.06.

Q: With A6U C8A A24G C42A as the variant, how does the self-cleavage read?
A: Its self-cleavage is 0.29.

Q: Which self-cleavage does the source give for A6U U9A A25C G40A here?
A: Its self-cleavage is 0.09.

Q: For A6U C8A A24G A26C, which self-cleavage is on record?
A: The self-cleavage was 0.29.

Q: With A6U C37A A39U as the variant, how does the self-cleavage read?
A: The self-cleavage was 0.11.

Q: For A6U U9A A14C G27C G40U, which self-cleavage is on record?
A: Its self-cleavage is 0.1.

Q: For A6U C8G C10A G30U U43C, which self-cleavage is on record?
A: The self-cleavage was 0.01.

Q: With A6U G40A A41U as the variant, how does the self-cleavage read?
A: Its self-cleavage is 0.27.

Q: For A6U C18G G30U U43G, which self-cleavage is on record?
A: The self-cleavage was 0.07.

Q: For A6U C13U A16G G21C U28G C31U G35C, which self-cleavage is on record?
A: Its self-cleavage is 0.02.

Q: Which self-cleavage does the source give for A6U G7C C8A here?
A: Its self-cleavage is 0.43.

Q: With A6U U20G A25U A26U as the variant, how does the self-cleavage read?
A: The self-cleavage was 0.18.

Q: With A6U C15U A25G as the variant, how does the self-cleavage read?
A: Its self-cleavage is 0.21.

Q: Which self-cleavage does the source give for A6U U20A G30A here?
A: The self-cleavage was 0.13.

Q: With G7A A12G G21C C23A A26C G27A U38C C45A as the variant, how does the self-cleavage read?
A: The self-cleavage was 0.04.

Q: With G7A A11G G17C U32G G33U as the variant, how does the self-cleavage read?
A: The self-cleavage was 0.01.

Q: Which self-cleavage does the source give for G7A A12C C13A G22A C31G here?
A: The self-cleavage was 0.05.

Q: With A6U G17A A26C G29C A39G C45U as the variant, how does the self-cleavage read?
A: The self-cleavage was 0.19.

Q: Which self-cleavage does the source give for G7A A12G A14G G21C A41G U43G here?
A: Its self-cleavage is 0.01.

Q: Which self-cleavage does the source give for A6U C15A U34C here?
A: The self-cleavage was 0.06.

Q: With A6U G22U G35A as the variant, how does the self-cleavage read?
A: The self-cleavage was 0.05.

Q: With A6U C8U U9A U43C as the variant, how does the self-cleavage read?
A: Its self-cleavage is 0.02.

Q: For A6U C10G G22A A24U, which self-cleavage is on record?
A: Its self-cleavage is 0.06.

Q: Which self-cleavage does the source give for A6U U9A C15A G27U G29U here?
A: Its self-cleavage is 0.1.

Q: With A6U U32A C46A as the variant, how does the self-cleavage read?
A: Its self-cleavage is 0.21.

Q: With A6U G33U C46A as the variant, how does the self-cleavage read?
A: The self-cleavage was 0.42.

Q: With A6U G27U G30C as the variant, how does the self-cleavage read?
A: Its self-cleavage is 1.5.

Q: With A6U C10G C23A as the variant, how does the self-cleavage read?
A: Its self-cleavage is 0.02.

Q: Which self-cleavage does the source give for A6U C8U G33C C37A here?
A: Its self-cleavage is 0.05.

Q: Which self-cleavage does the source give for G7A A12U C18A G19U here?
A: Its self-cleavage is 0.18.

Q: For A6U G22U G36A A39G, which self-cleavage is on record?
A: Its self-cleavage is 1.37.

Q: With G7A A11C C18G A41U as the variant, how does the self-cleavage read?
A: The self-cleavage was 0.02.

Q: For A6U C13U C18G U38A G44U, which self-cleavage is on record?
A: The self-cleavage was 0.02.

Q: For G7A A11U G17C, which self-cleavage is on record?
A: The self-cleavage was 0.02.

Q: Which self-cleavage does the source give for A6U G21A G30U G35U A39C G40U A41U here?
A: The self-cleavage was 0.24.

Q: For A6U G21U U38C, which self-cleavage is on record?
A: The self-cleavage was 0.39.

Q: With A6U U32C U34C U38G G44C as the variant, how does the self-cleavage read?
A: The self-cleavage was 0.
